# According to the supplement of paper PMC10369915:
# The list shows a part of the results. Rule as the data show it: active = 3.2 or more and inactive = the rest. Only a few entries rise above the background.
# B1: PARK7_Y67 (peptide)
# chain: KKEGPYDVVVL
# B2: PC_Y304 (peptide)
# chain: AKQVGYENAGT
# B3: PEAR1_Y890 (peptide)
# chain: RLDRSYSYSYS
# B4: PGM1_Y521_L516P_YF (peptide)
# chain: PFIDSYEKDVA
# B5: PANK2_Y405 (peptide)
# chain: YSKDNYKRVTG
# B6: PDGFRA_Y993 (peptide)
# chain: YIGVTYKNEED
# B7: PARP4_Y214_F215Y_YF (peptide)
# chain: EDASEYFENFI
# B8: PGK1_Y161_G158V (peptide)
# chain: KLVDVYVNDAF
# B9: PDPK1_Y9 (peptide)
# chain: TTSQLYDAVPI
# B10: PDGFRA_Y849_Y849C (peptide)
# chain: MHDSNCVSKGS
# B11: PEAR1_Y890_R885H_YF (peptide)
# chain: HLDRSYSFSFS
# B12: PDHA1_Y227_T231A (peptide)
# chain: CENNRYGMGAS
# B13: PBRM1_Y672_D674E (peptide)
# chain: EAVKNYTEKRG
# B14: PDGFRB_Y562 (peptide)
# chain: QKKPRYEIRWK
# B15: PATJ_Y783 (peptide)
# chain: EEESCYILHSS
# B16: PDGFRA_Y574 (peptide)
# chain: GHEYIYVDPMQ
# B17: PCDH15_Y931_R929Q (peptide)
# chain: FSKQIYKGMVA
# B18: PAX2_Y73_G76S_YF (peptide)
# chain: ILGRFYETSSI
# B19: PDE6B_Y227_L228I_YF (peptide)
# chain: IFHLSYIHNCE
# B20: PDLIM5_Y382_T381A (peptide)
# chain: SNSAAYSGSVA
# B21: PFAS_Y538 (peptide)
# chain: AGAIIYTSRFQ
# B22: PDGFRA_Y572_H570R_YF (peptide)
# chain: PDGREYIFVDP
# B23: PDHA1_Y243 (peptide)
# chain: ASTDYYKRGDF
# B24: PC_Y304_Y304C (peptide)
# chain: AKQVGCENAGT
# B25: PDGFRB_Y716_N718Y (peptide)
# chain: PSAELYSYALP
# B26: PARP1_Y618_M615I (peptide)
# chain: HFIKLYEEKTG
# B27: PDHA1_Y242_YF (peptide)
# chain: AASTDYFKRGD
# B28: PCCA_Y401_C398R (peptide)
# chain: VERRVYAEDPY
# B29: PDGFRA_Y572_H570R (peptide)
# chain: PDGREYIYVDP
# B30: PCCA_Y143 (peptide)
# chain: AVHPGYGFLSE
# B31: PDE6B_Y556 (peptide)
# chain: YRRITYHNWRH
# B32: PAX5_Y299_I301T (peptide)
# chain: PGPQSYPTVTG
# B33: PES1_Y265 (peptide)
# chain: AGEGTYALDSE
# B34: PAX2_Y73_G76S (peptide)
# chain: ILGRYYETSSI
# B35: PAX5_Y179 (peptide)
# chain: SAGSSYSISGI
# B36: PAX5_Y73_T75R_YF (peptide)
# chain: ILGRFYERGSI
# B37: PDE6B_Y556_R552Q (peptide)
# chain: YQRITYHNWRH
# Biological target: SHP2 C-SH2 domain E139D
# Assay: enrichment score (SH2-bound / input frequency) (ratio); bacterial display of known human phosphotyrosine sites (pTyr-Var adds point mutants) read by sequencing; higher = stronger binding; tyrosines were phosphorylated by kinases first
# Details: peptide library: pTyr-Var
# 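Also: displayed peptides selected on beads carrying the immobilized SH2 domain, with library peptides lacking any tyrosine serving as negative controls.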
row,Binder,enrichment score
1,B1,inactive: 0.764
2,B2,inactive: 0.613
3,B3,inactive: 0.472
4,B4,inactive: 0.639
5,B5,inactive: 0.43
6,B6,inactive: 0.909
7,B7,inactive: 0.719
8,B8,inactive: 0.839
9,B9,inactive: 0.971
10,B10,inactive: 0.662
11,B11,inactive: 0.742
12,B12,inactive: 0.64
13,B13,inactive: 0.652
14,B14,active: 7.54
15,B15,inactive: 0.936
16,B16,inactive: 1.03
17,B17,inactive: 0.626
18,B18,inactive: 1.52
19,B19,active: 3.73

row,Binder,enrichment score
1,B20,inactive: 0.663
2,B21,inactive: 0.662
3,B22,inactive: 0.799
4,B23,inactive: 0.526
5,B24,inactive: 0.609
6,B25,inactive: 0.901
7,B26,inactive: 1.63
8,B27,inactive: 0.545
9,B28,inactive: 0.68
10,B29,inactive: 0.534
11,B30,inactive: 0.762
12,B31,inactive: 0.39
13,B32,inactive: 0.885
14,B33,inactive: 0.59
15,B34,inactive: 1.27
16,B35,inactive: 0.837
17,B36,inactive: 1.4
18,B37,active: 3.66

# Biological target: SHP2 C-SH2 domain wild-type
# Assay: as above
# Details: peptide library: pTyr-Var
row,Binder,enrichment score
1,B1,inactive: 0.804
2,B2,inactive: 0.508
3,B3,inactive: 0.534
4,B4,inactive: 0.698
5,B5,inactive: 0.554
6,B6,inactive: 1.21
7,B7,inactive: 0.717
8,B8,inactive: 0.929
9,B9,inactive: 0.898
10,B10,inactive: 0.55
11,B11,inactive: 0.592
12,B12,inactive: 0.772
13,B13,inactive: 0.718
14,B14,active: 7.33
15,B15,inactive: 0.929
16,B16,inactive: 1.03
17,B17,inactive: 0.563
18,B18,inactive: 1.32
19,B19,active: 3.21

row,Binder,enrichment score
1,B20,inactive: 0.601
2,B21,inactive: 0.649
3,B22,inactive: 0.86
4,B23,inactive: 0.579
5,B24,inactive: 0.533
6,B25,inactive: 0.86
7,B26,inactive: 0.761
8,B27,inactive: 0.452
9,B28,inactive: 0.43
10,B29,inactive: 0.519
11,B30,inactive: 0.83
12,B31,inactive: 0.304
13,B32,inactive: 0.575
14,B33,inactive: 0.443
15,B34,inactive: 0.863
16,B35,inactive: 0.775
17,B36,inactive: 1.03
18,B37,inactive: 3.02

# Biological target: SHP2 N-SH2 domain L43F
# Assay: as above
# Details: peptide library: pTyr-Var
row,Binder,enrichment score
1,B1,inactive: 0.856
2,B2,inactive: 0.561
3,B3,inactive: 0.47
4,B4,inactive: 0.585
5,B5,inactive: 0.42
6,B6,inactive: 1.38
7,B7,inactive: 0.859
8,B8,inactive: 0.932
9,B9,inactive: 0.926
10,B10,inactive: 0.683
11,B11,inactive: 0.577
12,B12,inactive: 0.623
13,B13,inactive: 0.617
14,B14,active: 4.62
15,B15,inactive: 0.872
16,B16,inactive: 0.944
17,B17,inactive: 0.67
18,B18,active: 3.26
19,B19,active: 3.21

row,Binder,enrichment score
1,B20,inactive: 0.554
2,B21,inactive: 0.63
3,B22,inactive: 0.609
4,B23,inactive: 0.697
5,B24,inactive: 0.477
6,B25,inactive: 0.633
7,B26,inactive: 1.39
8,B27,inactive: 0.542
9,B28,inactive: 0.648
10,B29,inactive: 0.535
11,B30,inactive: 0.872
12,B31,inactive: 0.327
13,B32,inactive: 0.822
14,B33,inactive: 0.341
15,B34,inactive: 1.19
16,B35,inactive: 0.739
17,B36,inactive: 1.11
18,B37,active: 3.26

# Biological target: SHP2 N-SH2 domain T42A
# Assay: as above
# Details: peptide library: pTyr-Var
row,Binder,enrichment score
1,B1,inactive: 0.461
2,B2,inactive: 0.537
3,B3,inactive: 0.432
4,B4,inactive: 0.662
5,B5,inactive: 0.433
6,B6,inactive: 1.79
7,B7,inactive: 0.664
8,B8,inactive: 0.752
9,B9,inactive: 0.946
10,B10,inactive: 0.633
11,B11,inactive: 0.658
12,B12,inactive: 0.511
13,B13,inactive: 0.589
14,B14,active: 6.75
15,B15,inactive: 0.697
16,B16,inactive: 0.644
17,B17,inactive: 0.59
18,B18,inactive: 1.45
19,B19,inactive: 2.69

row,Binder,enrichment score
1,B20,inactive: 0.445
2,B21,inactive: 0.842
3,B22,inactive: 0.811
4,B23,inactive: 0.54
5,B24,inactive: 0.461
6,B25,inactive: 0.552
7,B26,inactive: 1.08
8,B27,inactive: 0.442
9,B28,inactive: 0.474
10,B29,inactive: 0.462
11,B30,inactive: 0.817
12,B31,inactive: 0.304
13,B32,inactive: 0.646
14,B33,inactive: 0.647
15,B34,inactive: 0.772
16,B35,inactive: 0.829
17,B36,inactive: 1.28
18,B37,inactive: 3.15

# Biological target: SHP2 N-SH2 domain T52S
# Assay: as above
# Details: peptide library: pTyr-Var
row,Binder,enrichment score
1,B1,inactive: 0.642
2,B2,inactive: 0.482
3,B3,inactive: 0.443
4,B4,inactive: 0.847
5,B5,inactive: 0.487
6,B6,inactive: 1.43
7,B7,inactive: 0.837
8,B8,inactive: 0.912
9,B9,inactive: 0.805
10,B10,inactive: 0.625
11,B11,inactive: 0.754
12,B12,inactive: 0.537
13,B13,inactive: 0.623
14,B14,active: 5.62
15,B15,inactive: 0.954
16,B16,inactive: 1.01
17,B17,inactive: 0.509
18,B18,inactive: 3.12
19,B19,inactive: 2.7

row,Binder,enrichment score
1,B20,inactive: 0.487
2,B21,inactive: 0.555
3,B22,inactive: 0.799
4,B23,inactive: 0.733
5,B24,inactive: 0.602
6,B25,inactive: 0.702
7,B26,inactive: 1.53
8,B27,inactive: 0.388
9,B28,inactive: 0.531
10,B29,inactive: 0.515
11,B30,inactive: 1.03
12,B31,inactive: 0.255
13,B32,inactive: 0.686
14,B33,inactive: 0.595
15,B34,inactive: 1.05
16,B35,inactive: 0.844
17,B36,inactive: 1.3
18,B37,active: 3.44

# Biological target: SHP2 N-SH2 domain wild-type
# Assay: as above
# Details: peptide library: pTyr-Var
row,Binder,enrichment score
1,B1,inactive: 0.644
2,B2,inactive: 0.718
3,B3,inactive: 0.553
4,B4,inactive: 0.728
5,B5,inactive: 0.613
6,B6,inactive: 0.984
7,B7,inactive: 0.753
8,B8,inactive: 0.98
9,B9,inactive: 0.867
10,B10,inactive: 0.628
11,B11,inactive: 0.978
12,B12,inactive: 0.709
13,B13,inactive: 0.813
14,B14,active: 6.19
15,B15,inactive: 1.1
16,B16,inactive: 0.923
17,B17,inactive: 0.736
18,B18,inactive: 1.28
19,B19,inactive: 2.98

row,Binder,enrichment score
1,B20,inactive: 0.553
2,B21,inactive: 0.722
3,B22,inactive: 0.668
4,B23,inactive: 0.861
5,B24,inactive: 0.701
6,B25,inactive: 0.829
7,B26,inactive: 1.18
8,B27,inactive: 0.656
9,B28,inactive: 0.65
10,B29,inactive: 0.701
11,B30,inactive: 0.909
12,B31,inactive: 0.319
13,B32,inactive: 0.894
14,B33,inactive: 0.65
15,B34,inactive: 0.927
16,B35,inactive: 0.787
17,B36,inactive: 1.34
18,B37,inactive: 3.08
